# Assay results reported in the supplement of paper PMC11417369.
# The list shows a part of the results.
# System: PfHDP1 homeodomain (GST-tagged)
# Assay: gcPBM binding intensity (ln(normalized median fluorescence intensity)); higher = stronger DNA binding
# In short: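 GST-tagged P. falciparum DNA-binding domains produced in E. coli were incubated for 1 h on an Agilent 4 × 180k array of primer-extended double-stranded 36-bp intergenic genomic probes with negative controls. Binding intensity is the highest Masliner-normalised natural-log median intensity across replicate spots of either probe orientation, with bound protein detected by Alexa488 anti-GST antibody at 488 nm.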
row,Sequence,gcPBM binding intensity (ln)
1,TTAAAACATAAAAAAAGTACATACAAATATATATAA [XGTACX_site789],6.34
2,ACTTATTTATTTTTAGTGCATTTAGTTTTATTTTAT,9.65
3,TATAACTATAAAAGGAGTACTATATATATATATATA [XGTACX_site1388],9.37
4,AATAGTACAAAAAAAAAAAAAAAAAAAAAAAAAAAA [CACACA_negctrl_site1376],6.15
5,TCTACAAAATTATCATGTACATATTATTATAATTAT [XGTACX_site6585],6.47
6,TATTTGCAATGCAAATGTACATGAATTTTTTTAATG [XGTACX_site7474],9.21
7,TAAAAAGAAAAAAAGAGTACAAACAAAATAATAATT [XGTACX_site6071],6.85
8,AGTATACACAAACACACACACACAAAAAAAAAAAAA [CACACA_site8036],6.6
9,TTTTTTAAAAAACAAACACACACGTAGAAAAAAAAA [CACACA_site826],6.84
10,TAATTATATGGATACACACACATACATTTACATAAC [CACACA_site5744],6.88
11,TATATACCTATATATACACACAAATACATAAGCTTC [CACACA_site1369],6.64
12,AAATATTTTTTAATGTGTACATAGAACATATATATA [XGTACX_site3136],6.59
13,ATAATATATATATTATGTACATATAAATTTTTTTTT [XGTACX_site5826],6.39
14,GATATGATTAACTTATGTTATTCTTGATGATTACGT [CACACA_negctrl_site354],6.25
15,AATATATTTATATATAGTACTTTTATAATATCGTTT [XGTACX_site6658],6.06
16,AATACACATAATACATGTACTCACATTGTTATAACA [XGTACX_site4129],7.11
17,TTTTTTATTTATTGTTATACATCTTACTACTTATAA [GTGCAC_negctrl_site381],6.63
18,TACGTTATATACAACTGTACTTGGATAATTATTAAC [XGTACX_site5614],6.63
19,TACAAATTAATATGTACACACAAATATAAATATGTA [CACACA_site7016],6.3
20,TTTTCTTTTTTGAACTGTACGCGTAAATTTAAAAAG [XGTACX_site882],6.36
21,AAGTTTTTTTCTTTTTTTCTCTCTTTTTTTTTTTTT [XGTACX_negctrl_site613],5.75
22,TTTTTTTATTTTTGTTGTACTTATAATTCTGTAAAA [XGTACX_site7344],6.7

row,Sequence,gcPBM binding intensity (ln)
1,TATAAATATAAATACACACACACACGCCAAAGCGTA [CACACA_site6181],6.61
2,CTTTTTTTTTTAAATAGTACTTTCTCGTATACTCAT [XGTACX_site1842],6.41
3,TGTGAAATAAAATTTATACACACTTGCTAAATGATC [CACACA_site181],6.48
4,AAGAAAAATGTGTTTTTTTTTTTTTTTTTTTTCAAT [TGCATGCA_negctrl_site404],5.87
5,ATAAGAAGAAGAAAAACACACATATGTAAATATATA [CACACA_site3138],6.84
6,ATATTATAGATATACACACACACATGCATGCACATA [CACACA_site6203],9.82
7,TAATTAAATATTTCAGTGCATTATTTTATGATCCAT [GTGCAC_site9456],10.1
8,AGATGAACTAAAAAGGTGCTAAATATGTGACCACTG [GTGCAC_site9406],6.56
9,TTTTTTTTAGTATGAACACACATATAGATTATAAAA [CACACA_site7391],6.32
10,TACATACACAGACACACACACATATAAATATAAATA [CACACA_site7641],7.18
11,ATTTAGAATGTTCCTACACACCAAATTTAAGTGTGC [CACACA_site7161],6.66
12,ATTAATTTAATTTGAATTATTTTATTATATTATTAT [XGTACX_negctrl_site10],6.2
13,GTTTGAATATATCAGGTGCATTTATAATTCATATGA,9.12
14,TATATATCTTTATGCACACACAAAGAAAATTTTCCT [CACACA_site7366],10.5
15,AAGAATATAATCTTCACACATATATATATATATATA [CACACA_site5927],9.47
16,AAGGACAACAAACAAACACACACAAAAAAAAAATAA [CACACA_site9263],6.65
17,TTATTATTAAAACACACACACAAAAAAAAAAAAAAA [CACACA_site1480],6.43
18,AAAAAAAAAAAAAAAACACACATGTATAATATAATA [CACACA_site2209],6.8
19,TACACCTGCACGATTGCACACAAATATGTTTTGAAG [CACACA_site8656],9.74
20,TATAGATGTGGTTTATGTACATACTATAAAAAATCA [XGTACX_site1400],6.54
21,TTATATATATATATATAATATATATATATTTAAATA [XGTACX_negctrl_site453],6.49
22,GTATAATATTCATATTCACACATTAAAATATATTTA [CACACA_site4879],6.47
